T1: RBFOX1 RRM RbFoxmut (Fox-RRM*) (Homo sapiens, UniProt Q9NWB1 109-208, R118D;E147R;N151S;E152T)
T1 sequence: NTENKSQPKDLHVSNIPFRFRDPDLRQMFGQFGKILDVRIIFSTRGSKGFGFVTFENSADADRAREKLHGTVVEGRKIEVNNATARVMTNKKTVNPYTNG

B1: AUGCCUG (DNA:RNA)
RNA: GGGAGACCGGAAUUCAGAUUGUCCAUGCCUGUUAAAUCCCGUCGUAGCCACCA
DNA 1: CAATCTGAATTCCGGTCTCCC
DNA 2: TGGTGGCTACGACGGGATT
B2: UAGGACU (DNA:RNA)
RNA: B1 RNA with A25U, U26A, C28G, C29A, U30C, G31U
DNA 1: CAATCTGAATTCCGGTCTCCC
DNA 2: TGGTGGCTACGACGGGATT
B3: ACGACAA (DNA:RNA)
RNA: B1 RNA with U26C, C28A, U30A, G31A
DNA 1: CAATCTGAATTCCGGTCTCCC
DNA 2: TGGTGGCTACGACGGGATT
B4: AUGGUUU (DNA:RNA)
RNA: B1 RNA with C28G, C29U, G31U
DNA 1: CAATCTGAATTCCGGTCTCCC
DNA 2: TGGTGGCTACGACGGGATT
B5: CCCACCC (DNA:RNA)
RNA: B1 RNA with A25C, U26C, G27C, C28A, U30C, G31C
DNA 1: CAATCTGAATTCCGGTCTCCC
DNA 2: TGGTGGCTACGACGGGATT
B6: GGACCAG (DNA:RNA)
RNA: B1 RNA with A25G, U26G, G27A, U30A
DNA 1: CAATCTGAATTCCGGTCTCCC
DNA 2: TGGTGGCTACGACGGGATT
B7: GCCUUGC (DNA:RNA)
RNA: GGGAGACCGGAAUUCAGAUUGUCCGCCUUGCUUAAAUCCCGUCGUAGCCACCA
DNA 1: CAATCTGAATTCCGGTCTCCC
DNA 2: TGGTGGCTACGACGGGATT
B8: CAAAAUA (DNA:RNA)
RNA: B1 RNA with A25C, U26A, G27A, C28A, C29A, G31A
DNA 1: CAATCTGAATTCCGGTCTCCC
DNA 2: TGGTGGCTACGACGGGATT
B9: AAUGAGA (DNA:RNA)
RNA: B1 RNA with U26A, G27U, C28G, C29A, U30G, G31A
DNA 1: CAATCTGAATTCCGGTCTCCC
DNA 2: TGGTGGCTACGACGGGATT

These results are taken from PMC9911399, “Two distinct binding modes provide the RNA-binding protein RbFox with extraordinary sequence specificity”.

Positions count from the first letter of the chain named. This is one part of the list.

The target in the assay is T1, RBFOX1 RRM RbFoxmut (Fox-RRM*). The assay is described as follows: EMSA; HiTS-Eq, 1 nM pool, 10 min; buffer printed only for the single-RNA assays: 10 mM Tris pH 7.5, 150 mM NaCl, 3.4 mM EDTA, 0.001% NP-40, 30 C. The conditions noted are these: tags: His6 N-terminal (pET28a); label: 5' 32P. Summed up:
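Relative association constants, normalised to the cognate motif, were derived by comparing read counts of each RNA species with those of the control reaction. The RNA sequenced was the free fraction, separated by 8% native PAGE after a 10 min equilibration in 50 µL of 1 nM 5′-radiolabelled RNA (7 randomized nucleotides) with increasing concentrations of purified wild-type or mutant RbFox RRM.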
(In general: In EMSA bound probe runs differently from free probe, usually more slowly.)
Turning to B1, the binding signal is 0.246 KA relative to UGCAUGU.
For the molecule B2, the binding signal was 0.053 KA relative to UGCAUGU.
Regarding B3, the binding signal is 0.0783 KA relative to UGCAUGU.
In the case of B4 it was 0.0963 KA relative to UGCAUGU; in that of B5, 0.0705 KA relative to UGCAUGU; in that of B6, 0.103 KA relative to UGCAUGU.
The value for B7 was 0.387 KA relative to UGCAUGU.
Consider B8, for which the binding signal was 0.111 KA relative to UGCAUGU.
In the case of B9 it was 0.0825 KA relative to UGCAUGU.
